{"source": "PubChem BioAssay (NCI)", "system": "HCT-15 colon", "assay": "NCI-60 one-dose screen, 48 h (100 = growth as untreated, 0 = no growth, -100 = all killed)", "note": "A structure can be active in one record and inactive in another.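 Single-concentration screen, 48 h exposure, 96-well plates. Endpoint: percent growth. Below 10 = active.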 Certain results were filed several times, with different values. This is not the full list of results. There may be further records. These are repeated runs of one drug, at the concentration stated with the values; one value stands for one run. Counts like (3×) stand for listed records that agree.", "data": [{"smiles": "COc1cccc2c1C(=O)c1c(O)c3c(c(O)c1C2=O)C[C@@](O)(C(=O)CO)C[C@@H]3OC1CC(N)C(O)C(C)O1", "note": "(stereo not given in full)", "values": [{"measurement": "growth", "setting": "0.25 µM, runs of 2012", "value": "inactive: 92, 90.7 (2×), 87.2, 91.5, 85.9, 89.7, 92.2, 91.4, 92.5 (3×), 84.8 (2×), 89.9, 85.7 (2×), 89.8 (2×), 80.4 (2×), 88.2, 94, 94.2, 94.5, 86.8, 84.3, 82.6 (2×), 83.4 (2×), 87.6 (2×), 90.8, 82.9, 85.1, 82.3, 95.3, 94.6, 86.4, 79 (2×), 84.7, 80.8, 74.7 (2×), 79.6, 73.6, 76.4, 74.9, 80 (2×), 77.5 (2×), 78.6, 74.1, 86.5, 78, 93.6, 91 (2×), 87.7, 96, 77.6, 78.7, 80.7, 70.6, 84.6, 80.6%"}, {"measurement": "growth", "setting": "0.25 µM, runs of 2013", "value": "inactive: 88.4, 83.1, 81.3 (2×), 85.3, 93.8, 86.2 (2×), 87, 87.7, 83.3, 83.6 (2×), 90.4, 84 (2×), 85.6, 90.3 (2×), 91.9, 79.5, 88.5, 80.2, 77, 77.6, 76.5, 77.3 (3×), 78.4 (2×), 81.1 (2×), 78.6, 74.8, 82.8, 87.6, 86.6 (2×), 85.2, 88, 78 (2×), 82.6, 76.1, 80.1, 79.8, 75.7, 78.1, 77.1, 71.2, 70, 63, 69.5, 87.2 (2×), 84.2, 77.7, 81.2, 80.6 (2×), 78.2, 73.5, 75.8, 73.9, 74.1, 68%"}, {"measurement": "growth", "setting": "0.25 µM, runs of 2014", "value": "inactive: 82.8, 84, 80.1, 81.6 (2×), 73.7 (2×), 77.6, 76.3, 80, 76, 75.2 (2×), 86.1, 84.4, 81.1, 74.8, 81 (3×), 76.4 (2×), 82.3 (2×), 83.4, 76.7 (2×), 76.8, 76.9 (3×), 77.5, 75.5, 72.5 (3×), 74.5, 77.3, 78.7 (2×), 82.2, 74.1, 72.6, 70.5, 72.9, 71.6 (2×), 79.8, 73.3 (2×), 73.6 (2×), 67, 67.9, 66.2, 65, 66.3, 65.5, 70.6, 68.4, 75.6 (2×), 71.3, 68.9, 70.3, 79 (2×), 64.6, 74.9, 84.9, 69.2, 73.4, 80.8, 70.2, 68.6, 76.2, 78.6, 67.4%"}, {"measurement": "growth", "setting": "0.25 µM, runs of 2015", "value": "inactive: 78.9, 84.8, 72.4 (2×), 75.2 (2×), 72.6, 80, 69.5, 76.5 (2×), 73.6, 75.6, 78.2, 82.4 (2×), 77.5 (2×), 76.9 (2×), 71.2, 89.6, 67.2, 77.4, 76.4, 71.6, 83.1, 77.3 (2×), 81.6, 75.8, 80.5, 78.6, 81.2 (3×), 77.1 (2×), 75.7, 77.2 (2×), 73.5, 84.1 (2×), 68.8, 82.6, 76.3, 73.7, 87.8, 70.1, 72.2, 86.9, 73, 70.5, 78.5, 72.9, 77 (3×), 80.8 (3×), 81.8 (2×), 79.7, 68.5, 74.3 (2×), 86.2, 81.9, 79, 84.7, 79.1, 85.8%"}, {"measurement": "growth", "setting": "0.25 µM, runs of 2016", "value": "inactive: 82.8 (3×), 80.1, 82.9 (2×), 85.6, 79.8 (2×), 76.6 (2×), 87.6, 75.6, 79.1, 78.5, 77.6 (3×), 82.2, 81.8 (2×), 80.6 (2×), 74.5, 79.3, 77.7, 81, 78.7 (2×), 77.3 (2×), 77.4, 76.5, 75.5, 77 (2×), 76.3, 79, 81.3 (2×), 79.6, 78, 81.4, 82.7, 85.2 (2×), 81.7 (3×), 83.4, 90.1, 86.4, 86.6, 80.4, 75.8, 78.1, 83.7 (2×), 85.8, 80.5 (3×), 89.7, 88.3, 84.1, 83 (2×), 85.3, 80, 84, 84.2, 85.5 (2×), 88.4, 83.1, 82.6, 81.9, 81.2, 77.5, 87.5, 86%"}, {"measurement": "growth", "setting": "0.25 µM, runs of 2017", "value": "inactive: 81.2 (3×), 82.4 (2×), 79.8 (2×), 82.1, 83.1 (2×), 77.1 (2×), 79 (2×), 73.5, 79.6, 76.6, 76.1, 82.9, 77.6 (2×), 76.5 (2×), 79.3 (3×), 81.8, 81.6, 77, 80.7 (3×), 75.7 (2×), 77.2, 78.2, 79.2, 81.1 (3×), 73.7 (2×), 80.4 (2×), 77.3, 82.2 (2×), 73.9, 76, 75.2, 78.3 (2×), 69.2, 74.9, 74.5, 73.2 (2×), 86.2, 89.2, 82.3, 83.7, 84.9, 85.9, 78.4, 77.7, 80, 83.9, 79.5 (2×), 80.8, 80.2, 80.1, 85.1, 81.4, 85.7%"}, {"measurement": "growth", "setting": "0.25 µM, runs of 2018", "value": "inactive: 87.1, 84.2, 75.6, 75.7, 74.7, 76.4 (2×), 79.8 (3×), 77.1, 83, 86.6, 80.1, 82.1, 79.2, 76.2, 82.2, 73.6, 72.8, 89.6, 79.5, 80, 80.7, 78.6, 76.8, 79.6, 79.3, 79.1, 74.9 (2×), 78.2 (2×), 81.4, 80.8, 78.1, 77.6, 74.8, 73.5, 77.2, 78.7 (2×), 77 (2×), 74.3, 78.9, 79, 81, 78.8%"}, {"measurement": "growth", "setting": "0.25 µM, runs of 2019", "value": "inactive: 72.7, 69.8 (3×), 77.4, 69, 69.2, 72.8 (2×), 68.8, 73.9 (3×), 80.1, 76.7, 75.6, 81.4, 71.2, 76.6, 73.4 (2×), 73, 73.7 (2×), 72.5, 70.9, 79.2, 64.6, 74.2, 62.4, 61.5 (2×), 76.3 (2×), 78.2, 83.4, 83.5, 79.5, 76.9, 82.2, 70.2, 70.6, 73.5, 75, 67.6, 74.9%"}, {"measurement": "growth", "setting": "0.25 µM, runs of 2020", "value": "inactive: 65.3, 67.7 (2×), 67.2, 66.7, 70.2, 69.9, 70.3, 72.5, 80, 81.7, 76.1, 82.1, 85.7, 76, 76.4, 78.7, 76.9, 74.1, 67.3, 78.5%"}, {"measurement": "growth", "setting": "0.25 µM, runs of 2021", "value": "inactive: 81.8, 84.4, 76, 78.4, 76.6, 74.2, 70.4 (2×), 70.3, 79.2, 80.7, 75, 74.7, 64.8, 69.7, 70.6, 73.4, 67.7, 70.1, 68.4 (2×), 67, 66.2, 67.9, 73.6, 78.9 (2×), 76.5, 59.8, 78, 78.7, 80.2, 82.8, 80.5, 75.8, 72.5, 83.5, 68, 67.1, 65.4, 61, 77.7, 74.8, 71.6, 77.6, 78.1, 76.8%"}, {"measurement": "growth", "setting": "0.25 µM, runs of 2022", "value": "inactive: 55.2, 69.9, 67.3, 46, 68.8 (2×), 60.4, 70.3, 73.7, 67.4, 72.2, 69.3, 70.1, 74.8 (2×), 82.6, 84.4, 81.7, 78.9, 82.1, 93.7, 71.3, 72.5, 71.2%"}, {"measurement": "growth", "setting": "25 µM, runs of 1991", "value": "active: 0.884, 5.31, -9.27, 0.874, 2.49, -5.81, 4.13, -19, -5.38, 1.29, 4.28, 0.462, -5, -13.7% and inactive: 97.9%"}, {"measurement": "growth", "setting": "25 µM, runs of 1992", "value": "active: -3.77, 0.527, 7.25, 4.77, -8.1, -83.6, 0, 1.86, 2.08, 4.58, -20.2, -6.36, -19.3 (2×), 7.92, 8.99, 2.22, 1.54, 0.0446, -8.24, -8.96, -46.7, 2.27 (2×), 6.39, -94.3, -11.9, -23.2 (3×), 1.93, -0.477, 0.638, -8.05, 3.26, -44.4, -44.1, -13.8, -10.3, 0.824, 1.02, -24, 9.23, 8.23, -53.8, -34.8, -23.5, -27.8, -23.9, -4.66, 1.28, 6.46, 3.79, 2.53, -73, -16.6, -54.6, 0.15, 2.96, 1.43, 4.79, 1.25, 8.2, 4.33, -50.3, 6.71, -29.6, -27.5, -31.5, -15.1, -12.5, 1.2, 0.516, -5.05, -21.5, -34.4, -14.7, -7.95, -15.2, 7.81, -24.3, 3.57, -15.3, -13.4, 7.38, 5.65, 3.29, 8.12, -2.82, 2.06, 9.01, 5.45, 5.49% and inactive: 41.1, 11.1 (2×), 15.1, 16.3, 37.9, 10.5, 17.6, 12.2, 18.5, 12.6, 10.4, 11, 12.4, 12.7, 17.7, 13.7, 11.6, 14.7, 21.8, 13.1, 18.6, 12.9, 22.1, 22.5, 18.4, 30.9%"}, {"measurement": "growth", "setting": "25 µM, runs of 1993", "value": "active: 2.39, 1.35, -11.6, -10.3, 3.05, 4.73, -15.3 (2×), 5.33, 4.26, -19.6, 0.0366, -25.5, -3.3, -23.2, -12.4, -0.746, 4.64, 4.43, 3.27, -16.2, 7.67, -9.12, -36.4, 7.56, 7.85, 1.51, 2.08, 1.67, -6.54, -26.3, -5.4, 7.75, -40.1, 1.28, 4.94, -7.83, 1.87, -35.9, 4.34, 2.47, -19.4, 0.139, 0.617, -30% and inactive: 16.4%, 14.4%"}, {"measurement": "growth", "setting": "25 µM, runs of 1994", "value": "inactive: 23, 101, 11.8, 26.1, 10.9, 11.2, 11.9% and active: -35.7, -19.9, 7.82, -15.7, 6.98, 0.721, -25.7, 3.55, -6.31, -22.3, 5.87, 2.25, 1.5, -4.1, 4.82, -4.61, -26.2, 1.49, 8.85, 9.49, -18.6, 4.83, -9.84, -3.3, -6.33%"}]}]}
